From a protein production outcome set (Wang et al. 2014) come the findings set out here.
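Note: failed if final PepcDB status was selected cloned or expressed and not failed if soluble or beyond.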

This series in a line: label from the status in PepcDB records.
On to “MEWDNGTGQALGLPPTTCVYRENFKQLLLPPVYSAVLAAGLPLNICVITQICTSRRALTRTAVYTLNLALADLLYACSLPLLIYNYAQGDHWPFGDFACRLVRFLFYANLHGSILFLTCISFQRYLGICHPLAPWHKRGGRRAAWLVCVAVWLAVTTQCLPTAIFAATGIQRNRTVCYDLSPPALATHYMPYGMALTVIGFLLPFAALLACYCLLACRLCRQDGPAEPVAQERRGKAARMAVVVAAAFAISFLPFHITKTAYLAVRSTPGVPCTVLEAFAAAYKGTRPFASANSVLDPILFYFTQKKFRRRPHELLQKLTAKWQRQGR”, for which the protein production entry is given as “not failed”.

Regarding “MGNHTWEGCHVDSRVDHLFPPSLYIFVIGVGLPTNCLALWAAYRQVQQRNELGVYLMNLSIADLLYICTLPLWVDYFLHHDNWIHGPGSCKLFGFIFYTNIYISIAFLCCISVDRYLAVAHPLRFARLRCVKTAVAVSSVVWATELGANSAPLFHDELFRDRYNHTFCFEKFPMEGWVAWMNLYRVFVGFLFPWALMLLSYRGILRAVRGSVSTERQEKAKIKRLALSLIAIVLVCFAPYHVLLLSRSAIYLGRPWDCGFEERVFSAYHSSLAFTSLNCVADPILYCLVNEGARSDVAKALHNLLRFLASDKPQEMANASLTLETPLTSKRNSTAKAMTGSWAATPPSQGDQVQLKMLPPAQ”, the protein production result is given as “failed”.

For the sequence “MNESRWTEWRILNMSSGVVNVSERHSCPLGFGHYSVVDVCIFETVVIVLLTFLIIAGNLTVIFVFHCAPLLHHYTTSYFIQTMAYADLFVGVSCLVPTLSLLHYSTGVHESLTCQVFGYIISVLKSVSMACLACISVDRYLAITKPLSYNQLVTPCRLRICIILIWIYSCLIFLPSFFGWGKPGYHGDIFEWCATSWLTSAYFTGFIVCLLYAPAAFVVCFTYFHIFKICRQHTKEINDRRARFPSHEVDSSRETGHSPDRRYTMVLFRITSVFYMLWLPYIIYFLLESSRVLDNPTLSFLTTWLAISNSFCNCVIYSLSNSVFRLGLRRLSETMCTSCMCVKDQEAQEPKPRKRANSCSI”, the protein production result is recorded as “failed”.

In the case of “MNGTYNTCGSSDLTWPPAIKLGFYAYLGVLLVLGLLLNSLALWVFCCRMQQWTETRIYMTNLAVADLCLLCTLPFVLHSLRDTSDTPLCQLSQGIYLTNRYMSISLVTAIAVDRYVAVRHPLRARGLRSPRQAAAVCAVLWVLVIGSLVARWLLGIQEGGFCFRSTRHNFNSMAFPLLGFYLPLAVVVFCSLKVVTALAQRPPTDVGQAEATRKAARMVWANLLVFVVCFLPLHVGLTVRLAVGWNACALLETIRRALYITSKLSDANCCLDAICYYYMAKEFQEASALAVAPRAKAHKSQDSLCVTLA”, the protein production entry was “failed”.

On to “MSVDPACPQSLPCFEASDCKESSPMPVICGPEENYPSLQMSSAEMPHTETVSPLPSSMDLLIQDSPDSSTSPKGKQPTSAEKSVAKKEDKVPVKKQKTRTVFSSTQLCVLNDRFQRQKYLSLQQMQELSNILNLSYKQVKTWFQNQRMKSKRWQKNNWPKNSNGVTQKASAPTYPSLYSSYHQGCLVNPTGNLPMWSNQTWNNSTWSNQTQNIQSWSNHSWNTQTWCTQSWNNQAWNSPFYNCGEESLQSCMQFQPNSPASDLEAALEAAGEGLNVIQQTTRYFSTPQTMDLFLNYSMNMQPEDV”, for which the protein production result is on record as “failed”.

For the sequence “MYSGNRSGGHGYWDGGGAAGAEGPAPAGTLSPAPLFSPGTYERLALLLGSIGLLGVGNNLLVLVLYYKFQRLRTPTHLLLVNISLSDLLVSLFGVTFTFVSCLRNGWVWDTVGCVWDGFSGSLFGIVSIATLTVLAYERYIRVVHARVINFSWAWRAITYIWLYSLAWAGAPLLGWNRYILDVHGLGCTVDWKSKDANDSSFVLFLFLGCLVVPLGVIAHCYGHILYSIRMLRCVEDLQTIQVIKILKYEKKLAKMCFLMIFTFLVCWMPYIVICFLVVNGHGHLVTPTISIVSYLFAKSNTVYNPVIYVFMIRKFRRSLLQLLCLRLLRCQRPAKDLPAAGSEMQIRPIVMSQKDGDRPKKKVTFNSSSIIFIITSDESLSVDDSDKTNGSKVDVIQVRPL”, the protein production result is “failed”.
